Reference: the supplement of paper PMC9446081
Out of some 39,000 compounds screened, about 220 (0.56%) showed activity. This is one part of the list.

test system: Escherichia coli K-12 BW25113; assay: relative growth (OD600 normalised to plate interquartile mean) (fraction); higher = less growth inhibition, active = 0.2 or less; conditions: 50 µM; LB; incubation time: overnight (16-24 h)
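Further: static incubation at 37 °C against the wild-type strain, values averaged over two biological replicates.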

| SMILES | relative growth |
| --- | --- |
| Cc1noc(C)c1S(=O)(=O)NC(C)C | inactive: 0.996 |
| C[C@@H]1CCCCO[C@@H](CN(C)C(=O)Nc2cccc3ccccc23)[C@@H](C)CN([C@@H](C)CO)C(=O)c2cc(N(C)C)ccc2O1 | inactive: 0.912 |
| O=C(N[C@@H]1CC[C@H](CCn2cc(C3(O)CCCC3)nn2)O[C@@H]1CO)C1CCOCC1 | inactive: 0.982 |
| COc1ccc(NC(=O)N(C)C[C@@H]2Oc3ccc(NS(=O)(=O)c4c(C)noc4C)cc3C(=O)N([C@@H](C)CO)C[C@H]2C)cc1 | inactive: 0.984 |
| CCCCc1nn(-c2ccccc2C(F)(F)F)c(=O)n1Cc1ccc(-c2ccccc2S(=O)(=O)NC(=O)c2sccc2C)cc1 | inactive: 0.961 |
| Cc1ccc(S(=O)(=O)Nc2ccc3c(c2)CC(=O)N([C@H](C)CO)C[C@H](C)[C@H](CN(C)C(=O)NC(C)C)O3)cc1 | inactive: 1 |
| C[C@H]1CN([C@@H](C)CO)C(=O)c2cccc(NC(=O)Nc3ccc4c(c3)OCO4)c2O[C@H]1CN(C)S(C)(=O)=O | inactive: 0.99 |
| CC(C)CC#Cc1ccc2c(c1)O[C@@H](CN(C)C(=O)Cc1ccccn1)[C@@H](C)CN([C@H](C)CO)S2(=O)=O | inactive: 0.997 |
| CO[C@H](CN(C)C(=O)c1ccc2c(c1)OCO2)[C@H](C)CN([C@@H](C)CO)S(=O)(=O)c1ccc(C)cc1 | inactive: 0.99 |
| C[C@H](CO)N1C[C@H](C)[C@H](CN(C)Cc2ccc(C(F)(F)F)cc2)Oc2ccc(NC(=O)NC3CCCCC3)cc2CC1=O | inactive: 1.01 |
| C[C@@H]1CN([C@H](C)CO)C(=O)c2cc(NC(=O)Nc3cccc4ccccc34)ccc2O[C@@H](C)CCCCO[C@@H]1CN(C)Cc1ccc(C(F)(F)F)cc1 | inactive: 1.03 |
| Cc1noc(C)c1S(=O)(=O)Nc1ccc2c(c1)C(=O)N([C@H](C)CO)C[C@@H](C)[C@H](CN(C)C(=O)Nc1ccc3c(c1)OCO3)O2 | inactive: 1 |
| C[C@@H]1CN([C@H](C)CO)C(=O)c2cc(NC(=O)Cc3ccccc3)ccc2O[C@@H](C)CCCCO[C@@H]1CN(C)C(=O)C1CCCCC1 | inactive: 1.02 |
| COc1ccc([Si](C)(C)[C@@H]2[C@@H](CC(=O)N(CCO)Cc3ccccc3)O[C@]3(C(=O)N(Cc4ccc(N5CCC5=O)cc4)c4ccccc43)[C@H]2C)cc1 | inactive: 1.01 |
| CS(=O)(=O)N1C[C@H]2C[C@@H](F)[C@H](O)[C@@H]2C1 | inactive: 0.993 |
| Cc1ccc(S(=O)(=O)Nc2ccc3c(c2)C(=O)N([C@@H](C)CO)C[C@@H](C)[C@@H](CN(C)S(=O)(=O)c2ccc(C)cc2)OCCCC[C@H](C)O3)cc1 | inactive: 0.979 |
| C[C@@H]1CN([C@H](C)CO)C(=O)Cc2cc(NC(=O)Cn3cnnn3)ccc2O[C@@H]1CN(C)Cc1ccc(C(=O)Nc2ccccc2N)cc1 | inactive: 1.03 |
| Cc1ccc(S(=O)(=O)Nc2cccc3c2O[C@@H](CN(C)Cc2ccc(Cl)c(Cl)c2)[C@@H](C)CN([C@@H](C)CO)C3=O)cc1 | inactive: 1.05 |
| CC1=C(C(=O)NCCCN2CCN(c3ccc(F)cc3)CC2)C2(CCN(Cc3ccccc3)CC2)OC1=O | inactive: 0.567 |
| C[C@H]1CN([C@@H](C)CO)C(=O)c2cc(C#Cc3ccccc3F)cnc2O[C@H]1CN(C)C(=O)Cc1cccnc1 | inactive: 0.997 |

| SMILES | relative growth |
| --- | --- |
| C[C@@H]1CN([C@H](C)CO)C(=O)Cc2cc(NC(=O)CCCCCC(=O)Nc3ccccc3N)ccc2O[C@H]1CN(C)Cc1ccc(Cl)c(Cl)c1 | inactive: 0.93 |
| C[C@H](CO)N1C[C@H](C)[C@@H](CN(C)C(=O)Nc2ccc(F)cc2)OCCCC[C@H](C)Oc2ccc(NC(=O)Nc3ccc4c(c3)OCO4)cc2C1=O | inactive: 1.02 |
| O=C(C[C@H]1CC[C@@H]2[C@H](COC[C@@H](O)CN2S(=O)(=O)c2cccc(F)c2)O1)NCc1ccc2c(c1)OCO2 | inactive: 1 |
| C[C@H]1CN([C@@H](C)CO)C(=O)Cc2cc(NS(C)(=O)=O)ccc2O[C@H]1CN(C)S(=O)(=O)c1cccs1 | inactive: 1.01 |
| C[C@H](CO)N1C[C@H](C)[C@H](CN(C)C(=O)Nc2ccc(F)cc2)OCCCC[C@H](C)Oc2ccc(NC(=O)Nc3ccc(C(F)(F)F)cc3)cc2C1=O | inactive: 1.03 |
| C[C@H]1CN([C@@H](C)CO)C(=O)CCCn2cc(nn2)CO[C@H]1CN(C)C(=O)Nc1ccccc1C(F)(F)F | inactive: 1 |
| Cc1noc(C)c1S(=O)(=O)Nc1ccc2c(c1)CC(=O)N([C@H](C)CO)C[C@H](C)[C@H](CN(C)S(=O)(=O)c1cccs1)O2 | inactive: 0.997 |
| NC(CC(=O)O)C(=O)O (centres undefined) | inactive: 0.986 |
| COc1ccc(C#Cc2cnc3c(c2)C(=O)N([C@H](C)CO)C[C@H](C)[C@H](CN(C)C(=O)CC2CC2)O3)cc1 | inactive: 0.999 |
| COc1ccc(S(=O)(=O)N(C)C[C@H]2Oc3ccc(NC(=O)C4CC4)cc3C(=O)N([C@@H](C)CO)C[C@H]2C)cc1 | inactive: 1.01 |
| CC[C@H](C)[C@H](NC(=O)[C@H](Cc1ccc(O)cc1)NC(=O)[C@@H](NC(=O)[C@@H](CCCNC(=N)N)NC(=O)[C@@H](N)CC(=O)O)C(C)C)C(=O)N[C@@H](Cc1cnc[nH]1)C(=O)N1CCC[C@@H]1C(=O)N[C@H](Cc1ccccc1)C(=O)O | inactive: 0.998 |
| COc1ccc(S(=O)(=O)Nc2cccc3c2O[C@H](CN(C)C(=O)NC(C)C)[C@@H](C)CN([C@@H](C)CO)C3=O)cc1 | inactive: 0.996 |
| C[C@@H]1CN([C@H](C)CO)C(=O)c2cc(NC(=O)Nc3ccc(C(F)(F)F)cc3)ccc2O[C@H]1CN(C)C(=O)Nc1ccc(C(F)(F)F)cc1 | inactive: 1.02 |
| C[C@H]1CN([C@@H](C)CO)C(=O)Cc2cc(NC(=O)c3ccncc3)ccc2O[C@H]1CN(C)S(=O)(=O)c1cccs1 | inactive: 0.961 |
| N#Cc1cc2[nH]c(=O)c(=O)[nH]c2cc1[N+](=O)[O-] | inactive: 1.01 |
| COc1ccc(S(=O)(=O)Nc2cccc3c2O[C@H](CN(C)S(=O)(=O)c2cccs2)[C@@H](C)CN([C@H](C)CO)C3=O)cc1 | inactive: 0.984 |
| CO[C@@H]1[C@H](O)[C@@H](CO)O[C@H]1n1cc(C)c(N)nc1=O | inactive: 1 |
| C[C@@H]1CN([C@@H](C)CO)S(=O)(=O)c2ccc(-c3ccc(C(=O)N(C)C)cc3)cc2O[C@@H]1CN(C)C(=O)C1CCOCC1 | inactive: 1.01 |
| Cc1noc(C)c1NC(=O)Nc1ccc2c(c1)C(=O)N([C@H](C)CO)C[C@@H](C)[C@H](CN(C)S(=O)(=O)c1ccc(F)cc1)OCCCC[C@@H](C)O2 | inactive: 1.02 |
| O=C(O)[C@@H]1CCCN1 | inactive: 1.02 |

| SMILES | relative growth |
| --- | --- |
| Cc1cccc(S(=O)(=O)N2C[C@@H](O)COC[C@H]3O[C@H](CC(=O)NCCCN4CCOCC4)CC[C@@H]32)c1 | inactive: 1 |
| COc1ccc2c3c(n(c2c1)C)[C@H](CO)N(CC1CCCC1)C[C@]13CCN(CC1)C(=O)Nc1ccccc1 | inactive: 1.02 |
| CC(=O)OCC(=O)C1(OC(C)=O)C(C)CC2C3CC(F)C4=CC(=O)C=CC4(C)C3(F)C(O)CC21C (centres undefined) | inactive: 0.97 |
| COCC#Cc1cnc2c(c1)C(=O)N([C@@H](C)CO)C[C@@H](C)[C@@H](CN(C)C(=O)Nc1ccc(OC)cc1)O2 | inactive: 1.04 |
| C[C@@H]1CN([C@@H](C)CO)S(=O)(=O)c2ccc(C#C[C@@H](C)O)cc2O[C@@H]1CN(C)C(=O)Cc1ccccn1 | inactive: 0.989 |
| C[C@H]1CN([C@@H](C)CO)C(=O)Cc2cc(NC(=O)Nc3ccc(F)cc3)ccc2O[C@H]1CN(C)Cc1ccc(C(F)(F)F)cc1 | inactive: 1.02 |
| C[C@H]1CCC2=C(CCC[C@@]2(C)C(=O)O)[C@@]1(C)CCc1ccoc1 | inactive: 0.951 |
| CCS(=O)(=O)NCC[C@H]1CC[C@@H](NS(=O)(=O)c2ccccc2C)[C@H](CO)O1 | inactive: 0.97 |
| CNC(=O)C[C@@H]1CC[C@@H]2[C@H](COC[C@@H](O)CN2C(=O)c2ccccn2)O1 | inactive: 0.997 |
| C[C@H]1CN([C@@H](C)CO)C(=O)Cc2cc(NC(=O)C3CC3)ccc2O[C@H]1CN(C)C(=O)Nc1ccccc1 | inactive: 0.977 |
| C[C@@H]1CN([C@@H](C)CO)C(=O)c2ccccc2-c2ccccc2CO[C@H]1CN(C)Cc1ccccc1C(F)(F)F | inactive: 1.06 |
| C[C@H](CO)N1C[C@H](C)[C@@H](CN(C)Cc2ccncc2)Oc2c(NC(=O)c3cnccn3)cccc2C1=O | inactive: 0.981 |
| C[C@H]1CCCCO[C@H](CN(C)C(=O)CCC(F)(F)F)[C@@H](C)CN([C@@H](C)CO)C(=O)c2cc(NC(=O)Nc3ccccc3)ccc2O1 | inactive: 0.997 |
| CCOc1ccc(NC(C)=O)cc1 | inactive: 1.14 |
| CCCN(C)C[C@@H]1Oc2cc(C#Cc3ccc(OC)cc3)ccc2S(=O)(=O)N([C@H](C)CO)C[C@@H]1C | inactive: 1.02 |
| CO[C@H]1CN(C)C(=O)c2cc(NC(=O)CC(F)(F)F)ccc2OC[C@H](C)N(S(=O)(=O)c2cn(C)cn2)C[C@@H]1C | inactive: 0.985 |
| COc1ccc(S(=O)(=O)N(C)C[C@H]2Oc3ccc(NC(=O)c4ccncc4)cc3CC(=O)N([C@H](C)CO)C[C@@H]2C)cc1 | inactive: 1.02 |
| C[C@@H]1CN([C@H](C)CO)C(=O)c2cc(NC(=O)Cc3ccccc3)ccc2O[C@@H]1CN(C)Cc1ccc(C(F)(F)F)cc1 | inactive: 1.02 |
| C[C@@H]1CCCCO[C@@H](CN(C)C(=O)Nc2ccc3c(c2)OCO3)[C@H](C)CN([C@H](C)CO)C(=O)c2cc(NC(=O)c3ccncc3)ccc2O1 | inactive: 1 |
